Experimental data from publication PMC4336329 (PLoS ONE, 2015).
Screen size: about 310,000 compounds; about 14,000 (4.5%) showed an effect of 50% or more. Effects have a minus sign here. This is one part of the list.

What follows are compounds tested against human ether-à-go-go-related gene (hERG) potassium channel (human, UniProt Q12809) (assay: primary screen, population patch clamp on CHO cells stably expressing hERG).
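Also: peak tail current of the secondary pulse compared with the same well before compound.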

Sequence of human ether-à-go-go-related gene (hERG) potassium channel (Q12809 whole entry, looked up): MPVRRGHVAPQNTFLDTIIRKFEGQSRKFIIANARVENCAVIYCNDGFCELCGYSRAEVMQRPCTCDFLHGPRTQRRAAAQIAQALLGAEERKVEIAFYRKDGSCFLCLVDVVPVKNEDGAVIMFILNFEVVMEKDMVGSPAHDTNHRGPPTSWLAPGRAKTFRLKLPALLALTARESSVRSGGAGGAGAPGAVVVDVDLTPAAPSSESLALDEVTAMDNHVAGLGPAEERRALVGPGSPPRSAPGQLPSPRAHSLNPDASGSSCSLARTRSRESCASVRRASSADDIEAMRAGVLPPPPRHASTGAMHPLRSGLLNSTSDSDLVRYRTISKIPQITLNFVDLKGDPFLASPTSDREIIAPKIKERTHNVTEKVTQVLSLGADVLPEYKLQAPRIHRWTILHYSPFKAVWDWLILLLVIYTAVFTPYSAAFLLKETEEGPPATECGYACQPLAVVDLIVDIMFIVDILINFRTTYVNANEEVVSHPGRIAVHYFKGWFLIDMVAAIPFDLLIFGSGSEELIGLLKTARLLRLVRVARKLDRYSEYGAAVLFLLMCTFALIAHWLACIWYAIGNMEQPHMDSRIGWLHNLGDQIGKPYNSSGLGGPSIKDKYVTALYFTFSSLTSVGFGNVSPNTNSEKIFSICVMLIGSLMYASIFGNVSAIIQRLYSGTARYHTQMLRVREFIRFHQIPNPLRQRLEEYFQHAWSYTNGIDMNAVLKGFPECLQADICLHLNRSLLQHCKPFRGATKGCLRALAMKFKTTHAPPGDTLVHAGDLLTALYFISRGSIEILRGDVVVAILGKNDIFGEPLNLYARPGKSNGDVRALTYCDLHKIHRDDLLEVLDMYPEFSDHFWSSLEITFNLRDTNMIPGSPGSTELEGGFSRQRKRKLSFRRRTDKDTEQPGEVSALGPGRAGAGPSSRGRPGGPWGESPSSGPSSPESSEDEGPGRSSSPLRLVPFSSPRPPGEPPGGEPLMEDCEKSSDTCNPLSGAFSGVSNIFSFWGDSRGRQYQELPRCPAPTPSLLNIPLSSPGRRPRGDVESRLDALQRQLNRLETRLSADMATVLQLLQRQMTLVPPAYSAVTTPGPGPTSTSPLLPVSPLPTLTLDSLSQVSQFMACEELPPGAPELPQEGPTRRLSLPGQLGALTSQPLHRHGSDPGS

| SMILES | hERG current change (%, negative = inhibition) at 10uM [%] |
| --- | --- |
| COc1ccc(Cn2c(C(F)(F)F)ccc(C(N)=O)c2=O)cc1 | 1.62 |
| CC1(C)CC(=O)C2=C(C1)c1c(ccc3ccccc13)NC2c1ccco1 (stereo not drawn) | 14.1 |
| CCOc1ncccc1C(=O)Nc1nc(C(C)(C)C)cs1 | 11.4 |
| Cc1c(C)c2ccc(OS(C)(=O)=O)c(C)c2oc1=O | 3.68 |
| O=C(COc1ccc(Br)cc1)NCCCn1ccnc1 | -20.1 |
| COCCCN1C(=O)C(=O)/C(=C(/O)c2ccc(S(=O)(=O)N3CCCCC3)cc2)C1c1ccc(O)c(OC)c1 (stereo not drawn) | -7.86 |
| COc1ccc(NC(=O)c2cc3c(=O)n4ccccc4nc3n2C)cc1OC | 13.7 |
| CCc1cc2c(=O)c(-c3nc4ccccc4n3C)c(C)oc2c(CN2CCCCC2)c1O | -1.66 |
| O=C(N/N=C1\CCS(=O)(=O)c2ccc(F)cc21)c1ccc(O)cc1 | 16.2 |
| O=S(=O)(/N=C(/c1ccccc1)N1CCCCC1)c1ccccc1 | 0.361 |
| COc1ccc2c(c1OC)C(=O)N1C2SC(C)(C)[C@H]1C(=O)NC1CC1 (stereo partly drawn) | 17.8 |
| Cc1ccc2c(c1)N=C(c1ccc(F)cc1)CO2 | 4.92 |
| Cc1ccc(S(=O)(=O)N2CCOCC2)cc1NC(=O)COc1ccc(-c2nnco2)cc1 | -25.1 |
| COc1ccccc1N(O)C1CC(=O)N(c2ccc(F)cc2)C1=O (stereo not drawn) | 5.71 |
| Cc1nn(Cc2c(F)c(F)c(F)c(F)c2F)c(C)c1NC(=O)c1ccnn1C | -20.6 |
| CCOC(=O)N1CCN(C(=O)C2CCN(c3ncnc4c3sc3cccc(F)c34)CC2)CC1 | -59.9 |
| Cl.O=C(COc1ccc(Br)cc1)NCCN1CCCC1 | -43.8 |
| CCC(=Nc1ccccc1N)c1c(O)[nH]c(=O)[nH]c1=O | 18.5 |
| O=C(Cn1nc2ccccc2n1)N/N=C/c1ccc(F)cc1 | -2.6 |

| SMILES | hERG current change (%, negative = inhibition) at 10uM [%] |
| --- | --- |
| CC1CC(Nc2ccccc2)c2ccccc2N1C(=O)c1cccnc1 (stereo not drawn) | -2.36 |
| Cc1nc2ccsc2c(=O)n1-c1cccc(Cl)c1 | 14.4 |
| CCOC(=O)NC1(Nc2cccc(Cl)c2)Oc2ccccc2O1 | 6.82 |
| CCOCCCNC(=O)C1CC(=O)N(CCc2ccc(C)cc2)C1 (stereo not drawn) | 20.7 |
| CCOC(=O)C(=O)Cc1nc2ccccc2s1 | 0.765 |
| COc1ccc(S(=O)(=O)N2CCc3cc4c(cc3C2C)OCCCO4)cc1 (stereo not drawn) | 3.79 |
| CCC(C)NS(=O)(=O)c1ccc(OCC(=O)NCc2ccccn2)cc1 (stereo not drawn) | -11.3 |
| O=C(NCCc1cccs1)c1ccc(CS(=O)Cc2ccc(Cl)cc2)o1 (stereo not drawn) | -20.4 |
| CCOC(=O)N1CCC(NC(=O)c2ccc3c(c2)N(Cc2ccccc2)CCS3)CC1 | 10.6 |
| CCOC(=O)c1c(C)n2c3c(cc(C)cc13)CCC2 | 14.4 |
| COCCCNC(=O)c1cn(C)c(=O)c2cc(OC)c(OC)cc12 | 15.8 |
| CCOc1ccc(CCNC(=O)C2=C(C)C(=O)OC23CCC(C)CC3)cc1OCC (stereo not drawn) | -7.92 |
| CC1CCCC(C)N1C(=O)CCN1C(=O)C2C3C=CC(C3)C2C1=O (stereo not drawn) | 17.5 |
| CCn1c(CSc2nnc(C)n2-c2ccccc2)nc2cc(S(=O)(=O)N(C)C)ccc21 | -7.31 |
| CCC(=O)Nc1ccc(S(=O)(=O)Nc2ccccn2)cc1 | 19.7 |
| NC(=O)N/N=C/c1coc2ccc(O)cc2c1=O | 3.2 |
| CNC(=O)c1cc2c(=O)n3cccc(C)c3nc2n(C(C)C)c1=N | -77.3 |
| CCC(=O)NCC(=O)OCC(=O)c1ccccc1 | 11.4 |
| Cc1nc(N2CCN(C(=O)c3ccco3)CC2)c2oc3ccccc3c2n1.Cl | -54.8 |

| SMILES | hERG current change (%, negative = inhibition) at 10uM [%] |
| --- | --- |
| c1ccc(Oc2cccc(CN3CCOCC3)c2)cc1 | -29.4 |
| CCN(CC)S(=O)(=O)c1cccc(C(=O)NCCCn2ccnc2)c1 | -2.28 |
| Cc1cc(C(C)(C)C)c(OC(=O)[C@@H]2OC(c3ccccc3)=C[C@H]2c2ccccc2)c(C(C)(C)C)c1 | 7.58 |
| CCc1cc2c(NCc3ccccc3)nc(C)nc2s1.Cl | -35.8 |
| Cc1ccccc1NC(=O)NCCN1CC1 | 9.42 |
| O=C(c1cc2cc(Cl)ccc2[nH]1)N1CCN(Cc2ccc3c(c2)OCO3)CC1 | 9.05 |
| CC1CC(CC(C)C(=O)Nc2nncs2)C(=O)O1 (stereo not drawn) | -2.64 |
| Cn1c(=O)[nH]c(=O)c2c1nc(NC1CCCCC1)n2Cc1ccccc1 | -7.05 |
| O=S(=O)(NCCCCNS(=O)(=O)c1ccc(F)cc1)c1ccc(F)cc1 | -14.1 |
| Cc1ccc(CNC(=O)c2cn(C3CCCC3)c(=O)c3c2c2ccccc2n3C)o1 | -10.6 |
| COC(=O)C1(NC(=O)NC23CC4CC(CC(C4)C2)C3)CCCCC1 | 16.1 |
| COC(=O)C1C(O)CCC2CN3CCc4c([nH]c5ccccc45)C3CC21 (stereo not drawn) | -21.1 |
| COc1cccc(NC(=O)CN(C)C(=O)COc2cc(C)ccc2Cl)c1 | -10.5 |
| Cc1ccc(S(=O)(=O)N(C)C/N=C(\N)N[N+](=O)[O-])cc1 | 23.8 |
| COc1ccc(/C=C2/SC(=S)N(CC(=O)O)C2=O)cc1OCc1ccc(Cl)cc1 | 16.6 |
| COc1cc2ccccc2cc1C(=O)N1CCOCC1 | -23.5 |
| Cn1c(-c2c(N)n(C3CCCC3)c3nc4ccccc4nc23)nc2ccccc21 | -1.92 |
| Cc1ccc(S(=O)(=O)N2CCN(C(=O)C3CCCO3)CC2)cc1 (stereo not drawn) | 3.91 |
| COc1cc(-c2noc(C)c2C#Cc2ccc(N)cc2)cc(OC)c1OC | 9.61 |
